Test results: PubChem BioAssay AID1508624 (National Center for Advancing Translational Sciences (NCATS), 2021)
The campaign covered roughly 48,000 compounds. About 120 (0.25%) were called active. Another 4% or so got no clear call; they are omitted. Calls come from the whole dose curve; as a rule, active = well fitted activation curve with a large enough effect; inconclusive = small, poorly fitted or top-dose-only effect, or another doubt; inactive = no such curve, though single readings can be large or run the other way. This is one part of the list.

Test: Primary qHTS for Identification of Small Molecule Activators of Huntingtin-Antisense Promoter Activity; note: nearly all actives have a fitted effect of over 55% in size
Conditions: HEK293 HTT-AS promoter firefly luciferase reporter, 24 h; series mostly up to 57.5 µM; activity change, positive = activation: at the top concentration
Summary of the method: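 HEK293 cells carrying firefly luciferase reporters were seeded at 2,500 per well in Opti-MEM and cultured for 24 h. They were then treated with compounds at up to 57.5 uM final for 24 h at 37 degrees C before Dual-Glo luminescence readout.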

Activity change, positive = activation, inactive:
Cc1cc(C)nc(NS(=O)(=O)c2ccc(NC(=O)c3cc(=O)c4ccc(C)c(C)c4o3)cc2)n1 -11%
CN1CCN(C2(CNC(=O)c3ccc([N+](=O)[O-])cc3)CCCCC2)CC1 -9.65%
Cc1ccccc1-c1nc2scc(CCNC(=O)C(=O)Nc3ccc(F)cc3F)n2n1 -5.31%
CCc1ccccc1NC(=O)CSc1nc2ncccc2o1 -20.2%
O=C(CCc1ccccc1)N1CCc2c([nH]c3ccccc23)C1c1ccc(Cl)cc1 (stereo not drawn) -38.4%
O=C(CC(c1cccs1)N1Cc2ccccc2C1=O)Nc1ccc(F)cc1F (stereo not drawn) -27.2%
O=C(CSc1nc(=O)n(CCN2CCOCC2)c2c1CCC2)Nc1cccc(Cl)c1 -14.7%
COc1ccc(C(CNC(=O)Cc2ccc(Cl)cc2)N2CCOCC2)cc1 (stereo not drawn) -7.66%
Cc1cccc(CC(=O)NC2CC(=O)N(c3ccccc3)C2)c1 (stereo not drawn) -10.3%
Cc1ccc(C2=CC(c3ccc(Cl)cc3)n3nc(-c4ccc(C)cc4)nc3N2)cc1 (stereo not drawn) -32.7%
CC(C)c1ccc(C2c3c(oc4ccc(Cl)cc4c3=O)C(=O)N2CCCN2CCOCC2)cc1 (stereo not drawn) -25.6%
COc1cc(NC(=O)CN2C(=O)C(c3ccc(Cl)cc3)=NC23CCCCC3)cc(OC)c1 -59.9%
Cc1cc2c(cc3c(SCc4cccc(F)c4)nnc(C)n32)o1 10.5%
Cc1cccc(C(=O)N2CCC(N3CCN(Cc4ccc(F)cc4)C(=O)C3=O)CC2)c1 6.47% [at 11.5 µM, percent change from vehicle, -100% = no light]
COC(=O)c1ccc(Cl)cc1NC(=O)NC(C)c1c(-n2cccc2)sc(C)c1C (stereo not drawn) -21.4%
O=c1c2c3c(sc2n(Cc2ccccc2F)c(=O)n1-c1ccc(Cl)cc1)CCCC3 -7.23%
COc1ccc(NC(=O)CCc2nc3cccnc3n2-c2ccccc2)cc1Cl -24.6%
COCCn1c(SCC(=O)Nc2cccc(C)c2C)nc2c(oc3ccccc32)c1=O -0.859%
Cc1cc(-c2ccc(S(=O)(=O)Nc3cc(Cl)ccc3C)s2)on1 -43.3%
COc1ccc(CCNC(=O)c2cc3c(-c4ccc(OC)c(OC)c4)nn(C)c3s2)cc1OC -45.6%
Cc1ccc(Cn2c(CO)cnc2SCc2cccc(F)c2)cc1 7.18%
Cc1oc2ncn(C)c(=O)c2c1C(=O)N(Cc1ccccc1)C(C)C -4.61%
Cc1ccc(Cl)cc1N1CCN(C(=O)c2ccc(CS(=O)(=O)c3ccc(Br)cc3)o2)CC1 -53.4%
CCOC(=O)c1c(C)[nH]c(CCC(=O)NCc2cccc(OC)c2)c1C -10.8%
Cc1ccc(Cl)cc1N1CCN(C(=O)CCn2c(=O)c3cccn3c3cccnc32)CC1 -12.5%
CSCCC(NS(=O)(=O)c1ccc2c(c1)oc(=O)n2C)C(=O)Nc1ccc(F)c(Cl)c1 (stereo not drawn) -10.8%
Cc1cccc(NC(=O)c2cnc3sc(N4CCCC4)nn3c2=O)c1C -2.17%
COc1ccc(NC(=O)c2c(NCc3cccc(F)c3)sc3c2CCC3)c(OC)c1 -14.8%
COc1ccc(OC)c(CNC(=O)c2c(C)oc3ncn(CC(C)C)c(=O)c23)c1 -16.4%
CCCCOc1ccc(C2=NC(c3cccs3)=Nc3ccc(OC)cc3N2)cc1 -9.82%
COc1cccc2sc(N(Cc3cccnc3)C(=O)c3ccco3)nc12 -0.777%
Cc1nn(C)c(C)c1S(=O)(=O)N(CC(=O)NCCc1ccc(Cl)cc1)c1ccc(C(C)C)cc1 -14.8%
O=C(NCC(c1cccnc1)N1CCN(c2ccccc2F)CC1)c1ccc(F)cc1 (stereo not drawn) -36.6%
COc1cc2c(cc1OC)C(=O)CC2 4.11%
COc1ccc(C)cc1NC(=O)C(=O)NCCc1sc(-c2cccc(C)c2)nc1C 1.15%
Cc1cc(C)cc(NC(=O)Cc2csc(COc3cccc(C)c3)n2)c1 -9.25%
Cc1ccccc1C(=O)Nc1ccc(S(=O)(=O)N2CCC(c3nc4ccccc4s3)CC2)cc1 -36.2%
Cc1c(C)c2c(cc(C)c3c(-c4ccc(Br)cc4)coc32)oc1=O -13.4%
CCOC(=O)c1cccc(NC(=O)CCn2c(=O)oc3ccccc32)c1 -13.3%
CCC(Oc1ccccc1)C(=O)Nc1cccc(OCc2cc(=O)n3cccc(C)c3n2)c1 (stereo not drawn) -14.8%
Cc1ccc(CSc2nnc([C@@H](N)C(C)C)o2)cc1 -3.48%
CC(=O)c1ccc(NC(=O)Cn2c(=O)cc(C)c3c(C)nn(-c4cccc(F)c4)c32)cc1 -12.5%
CCOC(=O)c1c(C)[nH]c(C)c1S(=O)(=O)NCC(=O)Nc1cccc(SC)c1 2.91%
CCC1CCc2nc3sc(C(=O)Nc4cccc(F)c4)c(N)c3cc2C1 (stereo not drawn) 2.9%
COc1cccc(NC(=O)CSc2nc(C)c(Cc3ccccc3)c(=O)[nH]2)c1 -21.2%
Cc1ccc(C2N=C(N)Nc3nc4ccccc4n32)cc1 (stereo not drawn) -8.74%
CCN(CC)c1ccc(C(=O)NCc2nc3cccnc3n2Cc2ccc(C)cc2)cc1 -14.4%
Cc1cccc(-c2nc3c4c(-c5ccccc5)c(-c5ccccc5)oc4ncn3n2)c1 -2.23%
Cc1cccc(NC(=O)Cn2cc(S(=O)(=O)N3CCCC3)c(S(=O)(=O)N3CCCC3)c2)c1C 10.9% [at 11.5 µM, percent change from vehicle, -100% = no light]
CC1=C(C/C=C(\C)CCC[C@H](C)CCC[C@H](C)CCCC(C)C)C(=O)c2ccccc2C1=O 10.3%
CC(=O)N1c2ccc(S(=O)(=O)N3CCC(C(=O)Nc4cccc(Cl)c4C)CC3)cc2CC1C (stereo not drawn) -37.8%
Cc1cccc(Cn2cc(S(=O)(=O)c3ccccc3)c(=O)c3cc(F)c(N4CCOCC4)cc32)c1 -22.9%
Cc1cccc(C)c1NC(=O)C1CCCN1S(=O)(=O)c1ccccc1 (stereo not drawn) -3.58%
Cc1ccc2c(CC(=O)Nc3ccc(S(=O)(=O)N4CCCCC4C)cc3)coc2c1C (stereo not drawn) -21.5%
CCc1ccc2ncc3c(-c4ccc(F)cc4)nn(CC(=O)NC4CCCCC4)c3c2c1 -1.94%
O=C(OCCOCCO)c1ccccc1Nc1cccc(C(F)(F)F)c1 -23.4%
CCOC(=O)Cn1c(=O)n(-c2cccc(Cl)c2)c2nc(-c3ccccc3Cl)nc(C(N)=O)c21 -30.4%
CN(C)c1ccc(CNC(=O)Cc2ccc(NC(=O)N3CCCCc4ccccc43)cc2)cc1 5.27%
COc1ccc(N2CCN(CCCNC(=O)c3nnc(Cc4ccc(F)cc4)o3)CC2)cc1 -29.8%
Cc1ccccc1OC(=O)c1nc(SCc2ccccc2F)ncc1Cl 5.96%
CCCNC(=O)C1CCC(Cn2c(=O)c3sccc3n(CC(=O)NCc3ccccc3)c2=O)CC1 (stereo not drawn) -9%
CCOC(=O)c1ccc(NC(=O)CCCc2nc(-c3cc(OC)c(OC)c(OC)c3)no2)cc1 -60%
CCOc1ccc(S(=O)(=O)N(CC(=O)Nc2ccc(OC)cc2OC)c2ccccc2)cc1 -3.62%
Cc1nn(CCCC(=O)NCc2ccccc2Br)c(=O)c2c1sc1ccccc12 -1.05%
O=C(NCc1ccccc1F)C1CCCN(C(=O)N2CCOc3ccccc32)C1 (stereo not drawn) -25.9%
O=C(CN1C=NS(=O)(=O)c2ccccc21)Nc1ccccc1F -8.64%
COc1ccc(OC)c(CNS(=O)(=O)c2ccc3c(c2)oc(=O)n3C)c1 -17.2%
Cc1cccc2nc(Cn3c(=O)n(-c4ccc(Cl)cc4)c(=O)c4c5c(sc43)CCC5)cc(=O)n12 -12.7%
CCOc1ccc(C(=O)Nc2cccc(C(=O)OCc3cc(=O)n4cc(C)sc4n3)c2)cc1 -29.3%
COc1ccc(S(=O)(=O)N(CC(=O)N2CCc3ccccc3C2)c2ccc(C)cc2)cc1 -20.7%
COc1ccc(N2C(=O)CS(=O)(=O)C23C(=O)N(Cc2ccccc2F)c2ccccc23)cc1Cl (stereo not drawn) -25.3%
Cc1nn(C(C)C(=O)N2CCN(c3ccc(F)cc3)CC2)c(=O)c2c1sc1ccccc12 (stereo not drawn) -11.4%
CCn1cc(C(=O)NCCc2ccccc2)c(=O)c2cc(S(=O)(=O)N3CCCCCC3)ccc21 -32.4%
COc1ccc(Br)cc1CNC(=O)c1cc(=O)[nH]c2ccc(S(=O)(=O)N3CCCCC3C)cc12 (stereo not drawn) -29.8%
COc1ccccc1CNC(=O)CSc1nc(-c2ccc(OC)c(OC)c2)cc(C(F)(F)F)n1 -18.3%
CCOc1ccc(CCNC(=O)c2ccc3c(c2)N(Cc2ccc(F)cc2)CCS3)cc1 -5.37%
COC(=O)c1sccc1S(=O)(=O)N(CC(=O)Nc1cc(C)ccc1C)c1ccc(C)c(C)c1 -25.7%
Cc1ccc(N2CC(NC(=O)c3ccc(S(=O)(=O)N(C)C)cc3)CC2=O)cc1C (stereo not drawn) -14.9%
CCC(C)NC(=O)c1ccc2c(c1)sc1nc(-c3ccc(OC)cc3)cn12 (stereo not drawn) 14.6%
O=C(CSc1nc2c([nH]c3ccccc32)c(=O)n1-c1cccc(Cl)c1)N1CCCC1 -10.8%
O=C(Cn1cc(S(=O)(=O)Cc2cccc(Cl)c2)c2ccccc21)Nc1ccccc1C(F)(F)F -13.3%
Cc1c(C)n(Cc2ccccc2)c2ccc(C(=O)NCC(C)c3ccccc3)cc12 (stereo not drawn) -17.3%
Cc1ccc(N2CCN(S(=O)(=O)c3nnc(NC(=O)c4ccccc4)s3)CC2)cc1 -3.99%
COc1ccc(N2CCN(C(=O)c3cc4c(=O)oc5ccc(C)cc5c4s3)CC2)cc1 -11.2%
CCOc1ccc(CCNC(=O)c2ccc(-n3c(C)cc4c3CCCC4)cc2)cc1OCC -4.86%
CCOC(=O)CNC(=O)c1cc2c(=O)oc3ccccc3c2s1 2.71%
CCOc1ccc(N2CC(NC(=O)c3ccc4c(c3)OCO4)CC2=O)cc1 (stereo not drawn) -10.5%
CCCCNc1nc2c(S(=O)(=O)c3ccc(C)cc3)nnn2c2ccsc12 -20.1%
CCOCCc1nnc(NC(=O)C(=O)c2cc(C)n(-c3ccc(C)c(C)c3)c2C)s1 5.21%
O=C(Cn1cnc2nc3c(cc2c1=O)CCCC3)Nc1ccc(F)cc1Cl -3.48%
O=C(Nc1ccccc1C(=O)OCc1cc(=O)n2nc(C3CC3)sc2n1)c1ccc(Cl)cc1 33.7%
Cc1ccc(C)c(N2CCN(c3nc4ccc(C)cc4nc3-n3nc(C)cc3C)CC2)c1 -4.82%
Cc1cc(C)n(CCC(=O)Nc2ccc(Cl)cc2)n1 2.87%
